# Some of the results follow. Sequences were assembled here from the parent chain. Values near 0.05 are background.
# B1: TEV protease; numbered along this chain (parent)
# chain: MGESLFKGPRDYNPISSSICHLTNESDGHTTSLYGIGFGPFIITNKHLFRRNNGTLVVQSLHGVFKVKDTTTLQQHLVDGRDMIIIRMPKDFPPFPQKLKFREPQREERICLVTTNFQTKSMSSMVSDTSCTFPSGDGIFWKHWIQTKDGQCGSPLVSTRDGFIVGIHSASNFTNTNNYFTSVPKNFMELLTNQEAQQWVSGWRLNADSVLWGGHKVFMVKPEEPFQPVKEATQL
# Variants of: B1
# Test: raw area under fraction-flipped curve 0-4 h after induction (AUC4h, not background-subtracted), DNA-recorder readout of cleavage of the substrate (dimensionless); higher = more cleavage of the substrate by the protease variant
# Conditions: temperature: 34 °C; time window: 0-4 h after rhamnose induction
# 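Also: Bxb1 expression induced with 0.2% (w/v) L-rhamnose at OD600 near 0.5, cultures sampled hourly, flipped fraction per protease–substrate barcode pair counted by paired-end Illumina sequencing.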
Variant,area with substrate ENEYFQS,area with substrate ENFYFQS,area with substrate ENGYFQS,area with substrate ENIYFQS,area with substrate ENKYFQS,area with substrate ENQYFQS,area with substrate ENRYFQS,area with substrate ENSYFQS,area with substrate ENTYFQS,area with substrate ENVYFQS,area with substrate ENWYFQS,area with substrate ENHYFQS,area with substrate ENNYFQS,area with substrate ENPYFQS,area with substrate ENYYFQS,area with substrate ENCYFQS,area with substrate ENDYFQS,area with substrate ENMYFQS
P222M,0.0621,0.0605,0.0581,0.122,0.0545,0.0581,0.0634,0.0716,0.0621,0.0791,0.0335,,,,,,,
M188C,,0.0675,,0.134,,,,,0.05,0.0745,,0.0808,0.0729,0.0648,0.0705,,,
M188T,0.0713,0.0744,0.0761,,,0.056,,,0.0704,0.0725,0.0671,0.0596,,0.0658,0.0534,0.0683,0.0713,0.0788
T176L,0.0585,0.0568,,,0.0567,0.0489,0.0298,0.0593,,,0.0555,0.0395,0.0632,0.0613,0.0529,0.0576,0.0601,0.0454
E189D,,0.0587,0.0468,0.0945,0.0782,0.0667,,,,0.085,,0.0701,0.0478,,,,,0.0646
S169N,0.0527,0.0536,,0.0594,0.0547,0.062,0.0585,0.0618,0.0628,0.0544,0.0618,0.0618,0.0603,0.0377,,,0.0559,0.0615
C111K,,0.0778,0.0516,,,0.0807,0.0646,0.078,0.0609,0.0698,,,,0.0231,,,0.061,
P155F,0.0555,0.0578,0.0415,0.0535,,0.0731,0.0524,0.0513,0.0564,,0.0435,,,,,0.0541,0.0619,0.0504
L205F,,,0.0778,,,,,0.0599,,0.0059,,,,,0.0554,0.0569,0.0521,
K216L,0.0829,0.0505,0.061,0.0507,,0.0705,,,,0.07,,,0.0646,,0.101,0.0731,,0.065
T233S,0.0446,,0.0595,0.119,0.0641,0.0644,0.0545,0.0605,,0.0756,,0.0556,0.0537,0.0303,,0.0595,0.0584,0.148
T233D,0.0611,,,,,0.0643,0.0561,0.0418,0.0586,0.088,,0.063,0.0608,0.0638,,0.0732,0.0855,0.0792
V126G,0.0538,,,,,,0.061,0.0682,0.0686,0.0893,,,0.0632,,,,0.0509,0.0591
F133D,0.0565,,,,,0.0577,0.0411,0.0705,,0.0928,0.0365,0.0628,,0.087,,,0.0482,
S158H,0.0557,0.0568,0.0462,0.06,,0.0643,,0.0595,0.0627,0.0477,0.05,0.0519,0.0577,0.0441,0.0466,0.0765,0.0471,
D91C,0.0596,0.0668,0.0134,,,0.0539,,0.0611,,0.0819,,0.0654,0.046,,,,0.0536,0.0801
G214M,,,0.028,,0.0603,0.0522,0.053,,0.0654,,0.0484,0.0651,0.0509,,0.0587,0.0584,,
G214K,0.0501,0.0719,0.0641,,0.0709,0.0575,,0.0565,0.0783,0.0683,0.0453,0.0601,0.0579,0.0742,0.0471,0.0846,0.065,0.0658
W212M,0.0599,0.0663,,0.179,,0.0548,,0.0647,0.0369,0.102,0.0817,,,,,,,
N178I,0.0563,,0.0623,,,0.0606,0.0586,0.0455,,,,,0.051,,,0.071,,
V210K,0.0596,0.0571,0.066,0.0836,0.0631,0.0665,0.0504,,0.0611,0.0509,0.0139,0.0518,0.0788,,0.0704,0.0694,,0.0496
V183I,0.0633,0.0607,,,,0.0577,0.0829,0.0632,0.0636,,0.0403,,,0.0592,,0.0555,0.0715,0.0704
G138Q,,,,,0.051,,,,,0.0622,,,,,0.0442,0.0521,,
G202S,0.0618,,0.0693,,0.0651,0.0629,0.0534,0.052,0.0574,0.0779,,0.0734,,,,0.0592,0.0706,
G202N,0.0685,,,,0.0651,0.0621,0.0585,0.0672,,0.0896,0.0512,0.0537,0.0659,,,0.067,0.0591,0.0431
E195C,,,,,0.048,0.0701,0.057,0.0634,0.0433,,0.0449,,,0.055,0.0506,0.0789,0.0546,0.0859
F41N,0.0568,0.0594,0.0617,,0.0595,0.0582,0.0413,0.0542,,0.069,0.0474,,0.0633,0.0578,0.0454,,0.0724,
E224P,0.0668,,0.0836,0.0907,,,,0.0653,0.0649,,,0.0587,0.0519,0.082,,,0.0576,

# — the supplement of paper PMC12217912
